According to the antibiotic and cytotoxicity screens of Wong et al. (2023):
Some of the results follow.

Assays:
[1] = tested on: HSkMC (human skeletal muscle cells); assay: cytotoxicity call (relative viability < 0.9); settings: 10 µM
[2] = tested on: HepG2; assay: cytotoxicity call (relative viability < 0.9); settings: 10 µM
[3] = tested on: S. aureus RN4220; assay: growth inhibition call (relative growth <= 0.2); settings: 50 µM

Compound	cytotoxicity call [1]	cytotoxicity call [2]	growth inhibition call [3]
C[C@H](CO)N1C[C@H](C)[C@@H](CN(C)C(=O)Nc2ccc(C(F)(F)F)cc2)Oc2ncc(C3=CCCC3)cc2C1=O	inactive	inactive	inactive
O=C(Nc1c(Cl)cncc1Cl)c1ccc(OC(F)F)c(OCC2CC2)c1	inactive	inactive	inactive
COc1ccc(S(=O)(=O)N(C)C[C@@H]2OCCCC[C@@H](C)Oc3ccc(NC(=O)Nc4ccc5c(c4)OCO5)cc3C(=O)N([C@H](C)CO)C[C@@H]2C)cc1	inactive	inactive	inactive
N[C@H]1CCN(O)C1=O	inactive	inactive	inactive
C[C@H]1CCCCO[C@H](CN(C)Cc2ccccc2)[C@@H](C)CN([C@@H](C)CO)C(=O)c2cc(NC(=O)Nc3ccc4c(c3)OCO4)ccc2O1	inactive	inactive	inactive
CO[C@@H]1CN(C)C(=O)c2ccc(NC(=O)NC(C)C)cc2OC[C@H](C)N(Cc2ccc(-c3ccccn3)cc2)C[C@H]1C	inactive	inactive	inactive
CN1CCN(C(=O)[C@H]2[C@H](CO)[C@H]3Cn4c(cccc4=O)[C@@H]2N3S(=O)(=O)c2ccccc2F)CC1	inactive	inactive	inactive
COc1ccc(CN(C)C[C@H]2OCCCC[C@@H](C)Oc3ccc(NC(=O)NC4CCCCC4)cc3C(=O)N([C@H](C)CO)C[C@H]2C)cc1	inactive	active	inactive
C[C@@H]1CN([C@H](C)CO)C(=O)c2cc(NC(=O)Nc3ccccc3)ccc2O[C@@H](C)CCCCO[C@@H]1CN(C)S(=O)(=O)c1ccc(Cl)cc1	inactive	inactive	inactive
